The source of these data is the supplement of paper PMC11880418.

Where a name gives a salt, the structure may show the parent alone. Some of the results follow. The data scatter; read single values as rough.
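Note: High-content imaging of ALDEFLUOR-stained cells with Hoechst-labelled nuclei in 384-well plates, triplicate wells, scored as Z-score against 0.1% DMSO vehicle, negative meaning fewer ALDHbr cells.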

The test concerns PANC1. Kind of test: ALDHbr (CSC) cell proportion score relative to DMSO vehicle (ratio to DMSO); breast (SUM159) / gastric (MKN45) / pancreatic (PANC1) / colon cancer lines; ALDHbr cells have high ALDH activity and are rich in cancer stem cells (CSC); higher = more CSC (ALDHbr) cells remaining. The settings on record: 10 µM; 72 h.
With `CN(N=O)C(=O)N[C@H]1C(O)O[C@H](CO)[C@@H](O)[C@@H]1O` (mixture of isomers) [Streptozotocin], the ALDHbr was determined as 0.912.
On to `CC[N+](CC)(CC)CCOc1cccc(OCC[N+](CC)(CC)CC)c1OCC[N+](CC)(CC)CC` [Gallamine triethiodide], for which the ALDHbr was found to be 0.938.
Take `CN(C)CCOC(c1ccc(Cl)cc1)c1ccccn1` (stereo not drawn) [Carbinoxamine maleate salt]: the ALDHbr was found to be 0.837.
For `O=C(O)[C@H]1/C(=C/CO)O[C@@H]2CC(=O)N21` [Clavulanate potassium salt], the ALDHbr stood at 1.04.
`O=S(=O)(O)CCS` [Mesna]: the ALDHbr came to 0.992.
On to `CCOc1ccc(NC(C)=O)cc1` [Phenacetin], for which the ALDHbr was 1.02.
To `NS(=O)(=O)c1cc2c(cc1C(F)(F)F)NC(Cc1ccccc1)NS2(=O)=O` (stereo not drawn) [Bendroflumethiazide] belongs 0.881.
To `COc1cc(C)c(/C=C/C(C)=C/C=C/C(C)=C/C(=O)O)c(C)c1C` [Acitretin] belongs 2.08.
Take `CC#C[C@]1(O)CC[C@H]2[C@@H]3CCC4=CC(=O)CCC4=C3[C@@H](c3ccc(N(C)C)cc3)C[C@@]21C` [Mifepristone]: the ALDHbr came to 0.412.
With `COc1cc(-c2ccc(=O)[nH]n2)ccc1OC(F)F` [Zardaverine], the ALDHbr came out at 0.705.
`Nc1nc2[nH]cc(CCc3ccc(C(=O)N[C@@H](CCC(=O)O)C(=O)O)cc3)c2c(=O)[nH]1` [Pemetrexed disodium]: the ALDHbr came out at 1.3.
As for `O=C(O)c1ccccc1OP(=O)(O)O` [Fosfosal], the ALDHbr was 0.858.
To `CCc1nn(CCCN2CCN(c3cccc(Cl)c3)CC2)c(=O)n1CCOc1ccccc1` [Nefazodone hydrochloride] belongs 1.05.
